# Reference: the supplement of paper PMC8728848
# Some of the results follow.
# Tests used:
# Assay in all cases: glycan array binding signal (z-score within array); higher = stronger binding
# Settings in all cases: glycan notation: IUPAC condensed, linker removed
# Fuc(a1-2)Gal = biological target: Fuc(a1-2)Gal
# How it was run: (§1)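 Columns mapping to the same glycan were averaged after glycan names were converted to IUPAC-condensed notation. The data come from 3228 arrays in the Consortium for Functional Glycomics database, limited to those with an available protein sequence. Binding is reported as a within-array Z-score averaged across arrays of one protein sequence and across linkers.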
# Fuc(a1-2)Gal(b1-3)GalNAc = biological target: Fuc(a1-2)Gal(b1-3)GalNAc
# How it was run: as §1
# [1] = biological target: Fuc(a1-2)Gal(b1-3)GalNAc(a1-3)[Fuc(a1-2)]Gal(b1-4)Glc
# How it was run: as §1
# [2] = biological target: Fuc(a1-2)Gal(b1-3)GalNAc(a1-3)[Fuc(a1-2)]Gal(b1-4)GlcNAc
# How it was run: as §1
# [3] = biological target: Fuc(a1-2)Gal(b1-3)GalNAc(b1-3)Gal
# How it was run: as §1
# [4] = biological target: Fuc(a1-2)Gal(b1-3)GalNAc(b1-3)Gal(a1-4)Gal(b1-4)Glc
# How it was run: as §1
# [5] = biological target: Fuc(a1-2)Gal(b1-3)GalNAc(b1-4)[Neu5Ac(a2-3)]Gal(b1-4)Glc
# How it was run: as §1
# Fuc(a1-2)Gal(b1-3)GlcNAc = biological target: Fuc(a1-2)Gal(b1-3)GlcNAc
# How it was run: as §1
# [6] = biological target: Fuc(a1-2)Gal(b1-3)GlcNAc(b1-2)Man(a1-3)[Fuc(a1-2)Gal(b1-3)GlcNAc(b1-2)Man(a1-6)]Man(b1-4)GlcNAc(b1-4)GlcNAc
# How it was run: as §1
# [7] = biological target: Fuc(a1-2)Gal(b1-3)GlcNAc(b1-2)Man(a1-3)[Fuc(a1-2)Gal(b1-3)GlcNAc(b1-2)Man(a1-6)]Man(b1-4)GlcNAc(b1-4)[Fuc(a1-6)]GlcNAc
# How it was run: as §1
# [8] = biological target: Fuc(a1-2)Gal(b1-3)GlcNAc(b1-3)Gal(b1-4)Glc
# How it was run: as §1
# [9] = biological target: Fuc(a1-2)Gal(b1-3)GlcNAc(b1-3)GalNAc
# How it was run: as §1
# [10] = biological target: Fuc(a1-2)Gal(b1-3)GlcNAc(b1-3)[Fuc(a1-3)[Gal(b1-4)]GlcNAc(b1-6)]Gal(b1-4)Glc
# How it was run: as §1
# [11] = biological target: Fuc(a1-2)Gal(b1-3)GlcNAc(b1-3)[Gal(b1-4)GlcNAc(b1-6)]Gal(b1-4)Glc
# How it was run: as §1
# [12] = biological target: Fuc(a1-2)Gal(b1-3)GlcNAc(b1-3)[Neu5Ac(a2-6)Gal(b1-4)GlcNAc(b1-6)]Gal(b1-4)Glc
# How it was run: as §1
# [13] = biological target: Fuc(a1-2)Gal(b1-3)[Fuc(a1-4)]GlcNAc
# How it was run: as §1
# [14] = biological target: Fuc(a1-2)Gal(b1-3)[Fuc(a1-4)]GlcNAc(b1-2)Man(a1-3)[Fuc(a1-2)Gal(b1-3)[Fuc(a1-4)]GlcNAc(b1-2)Man(a1-6)]Man(b1-4)GlcNAc(b1-4)GlcNAc
# How it was run: as §1
# [15] = biological target: Fuc(a1-2)Gal(b1-3)[Fuc(a1-4)]GlcNAc(b1-3)[Fuc(a1-3)[Gal(b1-4)]GlcNAc(b1-6)]Gal(b1-4)Glc
# How it was run: as §1
# [16] = biological target: Fuc(a1-2)Gal(b1-3)[Fuc(a1-4)]GlcNAc(b1-3)[Gal(b1-4)GlcNAc(b1-6)]Gal(b1-4)Glc
# How it was run: as §1
# Fuc(a1-2)Gal(b1-4)Glc = biological target: Fuc(a1-2)Gal(b1-4)Glc
# How it was run: as §1
# Fuc(a1-2)Gal(b1-4)Glc6S = biological target: Fuc(a1-2)Gal(b1-4)Glc6S
# How it was run: as §1
# Fuc(a1-2)Gal(b1-4)GlcNAc = biological target: Fuc(a1-2)Gal(b1-4)GlcNAc
# How it was run: as §1
# [17] = biological target: Fuc(a1-2)Gal(b1-4)GlcNAc(b1-2)Man(a1-3)[Fuc(a1-2)Gal(b1-4)GlcNAc(b1-2)Man(a1-6)]Man(b1-4)GlcNAc(b1-4)GlcNAc
# How it was run: as §1
# [18] = biological target: Fuc(a1-2)Gal(b1-4)GlcNAc(b1-2)Man(a1-3)[Fuc(a1-2)Gal(b1-4)GlcNAc(b1-2)Man(a1-6)]Man(b1-4)GlcNAc(b1-4)[Fuc(a1-6)]GlcNAc
# How it was run: as §1
# [19] = biological target: Fuc(a1-2)Gal(b1-4)GlcNAc(b1-2)[Fuc(a1-2)Gal(b1-4)GlcNAc(b1-4)]Man(a1-3)[Fuc(a1-2)Gal(b1-4)GlcNAc(b1-2)Man(a1-6)]Man(b1-4)GlcNAc(b1-4)GlcNAc
# How it was run: as §1
# [20] = biological target: Fuc(a1-2)Gal(b1-4)GlcNAc(b1-3)Gal(b1-4)GlcNAc
# How it was run: as §1
# [21] = biological target: Fuc(a1-2)Gal(b1-4)GlcNAc(b1-3)Gal(b1-4)GlcNAc(b1-3)Gal(b1-4)GlcNAc
# How it was run: as §1
# [22] = biological target: Fuc(a1-2)Gal(b1-4)GlcNAc(b1-3)GalNAc
# How it was run: as §1
# [23] = biological target: Fuc(a1-2)Gal(b1-4)GlcNAc(b1-3)[Fuc(a1-2)Gal(b1-4)GlcNAc(b1-6)]GalNAc
# How it was run: as §1
# [24] = biological target: Fuc(a1-2)Gal(b1-4)GlcNAc6S
# How it was run: as §1
# [25] = biological target: Fuc(a1-2)Gal(b1-4)[Fuc(a1-3)]GlcNAc
# How it was run: as §1
# [26] = biological target: Fuc(a1-2)Gal(b1-4)[Fuc(a1-3)]GlcNAc(b1-2)Man(a1-3)[Fuc(a1-2)Gal(b1-4)[Fuc(a1-3)]GlcNAc(b1-2)Man(a1-6)]Man(b1-4)GlcNAc(b1-4)GlcNAc
# How it was run: as §1
# [27] = biological target: Fuc(a1-2)Gal(b1-4)[Fuc(a1-3)]GlcNAc(b1-2)[Fuc(a1-2)Gal(b1-4)[Fuc(a1-3)]GlcNAc(b1-4)]Man(a1-3)[Fuc(a1-2)Gal(b1-4)[Fuc(a1-3)]GlcNAc(b1-2)Man(a1-6)]Man(b1-4)GlcNAc(b1-4)GlcNAc
# How it was run: as §1
# [28] = biological target: Fuc(a1-2)Gal(b1-4)[Fuc(a1-3)]GlcNAc(b1-3)Gal(b1-4)[Fuc(a1-3)]GlcNAc
# How it was run: as §1
# [29] = biological target: Fuc(a1-2)Gal(b1-4)[Fuc(a1-3)]GlcNAc(b1-3)Gal(b1-4)[Fuc(a1-3)]GlcNAc(b1-3)Gal(b1-4)[Fuc(a1-3)]GlcNAc
# How it was run: as §1
# [30] = biological target: Fuc(a1-2)Gal(b1-4)[Fuc(a1-3)]GlcNAc(b1-3)GalNAc
# How it was run: as §1
# Fuc(a1-2)Gal6S(b1-4)Glc = biological target: Fuc(a1-2)Gal6S(b1-4)Glc
# How it was run: as §1
# [31] = biological target: Fuc(a1-2)Gal6S(b1-4)Glc6S
# How it was run: as §1
# [32] = biological target: Fuc(a1-2)Gal6S(b1-4)GlcNAc
# How it was run: as §1
# Fuc(a1-2)[Gal(a1-3)]Gal = biological target: Fuc(a1-2)[Gal(a1-3)]Gal
# How it was run: as §1
# [33] = biological target: Fuc(a1-2)[Gal(a1-3)]Gal(b1-3)GalNAc
# How it was run: as §1
# [34] = biological target: Fuc(a1-2)[Gal(a1-3)]Gal(b1-3)GlcNAc
# How it was run: as §1
# [35] = biological target: Fuc(a1-2)[Gal(a1-3)]Gal(b1-3)GlcNAc(b1-2)Man(a1-3)[Fuc(a1-2)[Gal(a1-3)]Gal(b1-3)GlcNAc(b1-2)Man(a1-6)]Man(b1-4)GlcNAc(b1-4)GlcNAc
# How it was run: as §1
# [36] = biological target: Fuc(a1-2)[Gal(a1-3)]Gal(b1-3)GlcNAc(b1-2)Man(a1-3)[Fuc(a1-2)[Gal(a1-3)]Gal(b1-3)GlcNAc(b1-2)Man(a1-6)]Man(b1-4)GlcNAc(b1-4)[Fuc(a1-6)]GlcNAc
# How it was run: as §1
# [37] = biological target: Fuc(a1-2)[Gal(a1-3)]Gal(b1-3)GlcNAc(b1-3)GalNAc
# How it was run: as §1
binder,measurement,setting,value
PpFlo3 (Pichia pastoris) (protein) MGSSHHHHHHSSGLVPRGSHMQESGNGTTSDTAYACDIGATPFDGFNATIYQYQASDDNSIQDPVFMSTGYLQRNQLHSTTGVTNPGFNIFTAGVATTTLYGIPNVNYQNMLLELKGYFRADASGNYGLSLRNIDDSAILFFGRETAFECCNENLIPLDEAPTDYSLFTIKEGEASTNPDSYTYTQYLEAGRYYPVRTFFANIRTRAVFNFTMTLPDGSELTDFQNYIFQFGALNQ,glycan array binding signal (z-score),Fuc(a1-2)Gal,-0.25
same,glycan array binding signal (z-score),Fuc(a1-2)Gal(b1-3)GalNAc,-0.256
same,glycan array binding signal (z-score),[1],-0.304
same,glycan array binding signal (z-score),[2],-0.217
same,glycan array binding signal (z-score),[3],-0.306
same,glycan array binding signal (z-score),[4],-0.282
same,glycan array binding signal (z-score),[5],-0.228
same,glycan array binding signal (z-score),Fuc(a1-2)Gal(b1-3)GlcNAc,2.71
same,glycan array binding signal (z-score),[6],-0.268
same,glycan array binding signal (z-score),[7],-0.286
same,glycan array binding signal (z-score),[8],-0.263
same,glycan array binding signal (z-score),[9],-0.269
same,glycan array binding signal (z-score),[10],-0.201
same,glycan array binding signal (z-score),[11],-0.088
same,glycan array binding signal (z-score),[12],-0.208
same,glycan array binding signal (z-score),[13],-0.299
same,glycan array binding signal (z-score),[14],-0.245
same,glycan array binding signal (z-score),[15],-0.253
same,glycan array binding signal (z-score),[16],-0.259
same,glycan array binding signal (z-score),Fuc(a1-2)Gal(b1-4)Glc,-0.287
same,glycan array binding signal (z-score),Fuc(a1-2)Gal(b1-4)Glc6S,-0.1
same,glycan array binding signal (z-score),Fuc(a1-2)Gal(b1-4)GlcNAc,-0.242
same,glycan array binding signal (z-score),[17],-0.257
same,glycan array binding signal (z-score),[18],-0.263
same,glycan array binding signal (z-score),[19],-0.253
same,glycan array binding signal (z-score),[20],-0.285
same,glycan array binding signal (z-score),[21],-0.064
same,glycan array binding signal (z-score),[22],-0.281
same,glycan array binding signal (z-score),[23],0.015
same,glycan array binding signal (z-score),[24],-0.289
same,glycan array binding signal (z-score),[25],4.84
same,glycan array binding signal (z-score),[26],-0.268
same,glycan array binding signal (z-score),[27],-0.29
same,glycan array binding signal (z-score),[28],-0.244
same,glycan array binding signal (z-score),[29],4.32
same,glycan array binding signal (z-score),[30],-0.241
same,glycan array binding signal (z-score),Fuc(a1-2)Gal6S(b1-4)Glc,-0.279
same,glycan array binding signal (z-score),[31],-0.178
same,glycan array binding signal (z-score),[32],-0.137
same,glycan array binding signal (z-score),Fuc(a1-2)[Gal(a1-3)]Gal,0.402
same,glycan array binding signal (z-score),[33],-0.291
same,glycan array binding signal (z-score),[34],-0.205
same,glycan array binding signal (z-score),[35],-0.259
same,glycan array binding signal (z-score),[36],-0.284
same,glycan array binding signal (z-score),[37],-0.269
